Results: PubChem BioAssay AID485344 (National Center for Advancing Translational Sciences (NCATS), 2010)
In all, about 340,000 compounds went through this assay and about 6,900 (2%) were called active. Rule as the data show it: active = inhibition above about 30%; inactive = below that, where a call was filed. The list shows a part of the results, in another mix than the full data. Entries without a call were filed so in the source.

Molecular target: D(2) dopamine receptor (Homo sapiens) (UniProt P14416)
Assay: HTS Assay for Allosteric Antagonists of the Human D2 Dopamine Receptor: Primary Screen for Antagonists; also: 0% is about no effect
Conditions: HEK293 TREx D2 cells, calcium flux, dopamine EC80; at 10 µM; stronger effect = higher value
Summary of the method: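 Overnight-induced (tetracycline, 30 C) HEK293 T-REx cells carrying force-coupled D2 receive a no-wash calcium dye, then compound, then EC80 dopamine at 180 s; signals are read kinetically throughout.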

Chain of UniProt P14416 (P14416 whole entry, looked up): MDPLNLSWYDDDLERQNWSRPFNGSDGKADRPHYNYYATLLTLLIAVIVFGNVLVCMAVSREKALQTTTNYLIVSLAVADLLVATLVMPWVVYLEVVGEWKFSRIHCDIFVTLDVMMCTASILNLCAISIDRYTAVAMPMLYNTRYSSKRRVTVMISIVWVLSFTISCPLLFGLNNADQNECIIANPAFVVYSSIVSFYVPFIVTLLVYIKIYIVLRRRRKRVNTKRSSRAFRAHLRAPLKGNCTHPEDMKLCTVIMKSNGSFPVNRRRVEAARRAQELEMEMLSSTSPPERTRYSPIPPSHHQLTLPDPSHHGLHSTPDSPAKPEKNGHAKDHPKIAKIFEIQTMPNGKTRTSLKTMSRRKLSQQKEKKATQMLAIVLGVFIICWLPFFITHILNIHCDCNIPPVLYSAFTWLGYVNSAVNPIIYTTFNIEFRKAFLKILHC

Compound	inhibition
CCCCNC(=O)CSc1nc2cc3c(cc2c(=O)n1CCCCCC(=O)NCc1ccc(OC)cc1)OCO3	21.8%
Cc1ccc(NC(=O)CN2C(=O)COc3ccc(S(=O)(=O)NC4CCCC4)cc32)c(Cl)c1	1.81%
CCOC(=O)c1ccc(NC(=O)N2CCN(Cc3ccccc3)CC2)cc1	active: 43.6%
Clc1cccc(N2CCN(CCNc3nc4ccccc4n4cnnc34)CC2)c1	active: 41.8%
COc1ccc(-c2cn3c(n2)sc2cc(C(=O)NCc4cccc(F)c4)ccc23)cc1	5.26%
Cc1ccc(NC(=O)Cn2c(=O)n(Cc3ccc4c(c3)OCO4)c(=O)c3ccccc32)cc1	-13.9%
Cc1ccccc1-c1cc2nccc(-c3cc(Cl)ccc3O)n2n1	-8.08%
Cc1ccc(C(=O)c2cn(Cc3ccccc3C)c3nc(C)ccc3c2=O)cc1	-3.78%
CCCc1cnc2c(c1SCc1cccc(F)c1)c(=O)n(C)c(=O)n2C	-3.06%
Cc1oc2c(cc(NS(=O)(=O)c3ccc(Cl)cc3)c3ccccc32)c1C(=O)OCc1ccccc1	-4.61%
CCn1c(=N)n(CC(O)COc2ccccc2)c2ccccc21 (configuration not stated)	-16.1%
Cn1c(=O)c2cc(C(=O)NC3CCCCCC3)sc2c2ccccc21	-15.5%
c1ccc(N2CCN(CC3CCCCC3)CC2)cc1	active: 68.2%
CC(C)(C)C(=O)COC(=O)CCc1nc2ccccc2[nH]c1=O	active: 30.6%
O=C(Cn1ncc2c3ccccc3n(Cc3ccccc3)c2c1=O)NC1CCCCCC1	6.97%
CCOc1ccc(CN2CCc3nc(N4CCN(c5ccccn5)CC4)ncc3C2)cc1OC	10.5%
COc1ccc(NC(=O)C(CC(C)C)NC(=O)C2CCCCC2)cc1 (configuration not stated)	6.37%
COc1ccccc1NC(=O)Cn1c(=O)n(-c2cccc(C)c2)c(=O)c2c1c1cc(C)ccc1n2C	3.07%
COc1cccc(OCCNCc2ccccc2)c1	active: 41.1%
COc1ccc(N(Cc2nnc3n2CCCCC3)C(=O)Nc2cccc(C)c2)cc1Cl	0.384%
COc1ccccc1CN1CCNC(=O)C1=O	10.3%
CCN(CC)CCNC(=O)c1cc(Nc2ccc(OC)c(OC)c2)nc2ccccc12	active: 43%
Cc1ccc(N2C(=O)C(Cl)=C(Nc3c(C)n(C)n(-c4ccccc4)c3=O)C2=O)cc1	active: 32.3%
CCCOc1ccc(C2C(=O)N(C3CCCCCC3)CC(=O)N2CCC2=CCCCC2)cc1OC (configuration not stated)	-17.3%
CCOCCn1ccc2c(OCC(=O)Nc3cccc([N+](=O)[O-])c3)cccc2c1=O	-15.6%

Compound	inhibition
Cc1ccc(NC(=O)CNCc2cccs2)c(Br)c1	active: 31.6%
Cc1noc(/C=C/c2cccs2)c1S(=O)(=O)N1CCC(C(=O)NCc2ccc(Cl)cc2)CC1	-0.313%
COc1cccc(C(=O)Nc2ccccc2OCc2cc(=O)n3ccccc3n2)c1	-1.86%
Cc1cccn2c(=O)c(/C=C(\C#N)c3nc4ccccc4s3)c(Oc3ccc(F)cc3)nc12	-9.28%
Cc1cc(C)c(S(=O)(=O)Nc2ccc3oc4c(c3c2)C(=O)CC(C)(C)C4)cc1C	-11.7%
COc1cc(OC)c(NC(=O)c2cn(C3CCCC3)c(=O)c3c2c2ccccc2n3C)cc1Cl	3.35%
COc1cccc(N2CCN(C(=O)c3cc4c(OC)c(OC)c(OC)cc4[nH]3)CC2)c1	active: 37.8%
COc1cc2c(cc1OC)C(COc1ccc(F)cc1)N(C(=O)c1cccc(F)c1)CC2 (configuration not stated)	21.1%
COc1ccc(-c2nnc(SCCC(=O)O)n2C)cc1OC	active: 34.4%
CN(C)CCCNC(=O)C(=O)NCC(c1ccc2c(c1)OCO2)N1CCOCC1 (configuration not stated)	-18.1%
O=C(c1ccc(Br)cc1)N(Cc1cccs1)c1ccc(F)cc1	4.99%
COc1ccc(C(=O)Nc2ccc3nc(N4CCCCC4)cc(C)c3c2)c(OC)c1	5.35%
C=CCN(CC=C)CC(O)CN(c1cc([N+](=O)[O-])ccc1OC)S(=O)(=O)c1ccccc1 (configuration not stated)	active: 66.1%
Cc1cn2c(=O)cc(COc3cccc(NC(=O)c4cccc(F)c4)c3)nc2s1	5.27%
CCCc1oc2ccc(NS(=O)(=O)c3ccc(OC)cc3)cc2c1C(=O)OCC	16.1%
COc1ccc(N2CCN(S(=O)(=O)CCNC(=O)Cc3ccc(-c4ccccc4)cc3)CC2)cc1	19.2%
CCOc1ccccc1CNC(=O)c1cccc(NC(=O)c2nsc3ccccc23)c1	-9.67%
Cc1ccc(C(CC(=O)Nc2ccc(C)cc2C)N2Cc3ccccc3C2=O)cc1 (configuration not stated)	-1.71%
CCOC(=O)c1c(NC(C)=O)c2c3c(sc2n1Cc1cccc(Cl)c1)CCCC3	0.203%
COCCNC(=O)Cn1c(=O)n(-c2ccc(C)c(C)c2)c(=O)c2c3c(sc21)CCCCC3	-17.6%
CN1CCN(S(=O)(=O)c2ccc(Oc3ccc(Br)cc3F)nc2)CC1	active: 33.8%
CCOC(=O)c1cccc(NC(=O)C2CCN(c3nnc(C)c4c(C)n(-c5ccccc5)nc34)CC2)c1	9.43%
COc1ccc(NC(=O)CN2CCN(S(=O)(=O)c3ccc(Br)cc3)CC2)cc1	-10.8%
COc1ccc(Cl)cc1NC(=O)C(C)N1Cc2ccccc2C1=O (configuration not stated)	-7.95%
O=C(Cn1c(SCc2cccc(F)c2)nc2ccncc21)Nc1ccc(Cl)cc1F	-10.8%

Compound	inhibition
CCOc1cc(CNC(=O)C(NS(=O)(=O)c2cccs2)C(C)C)cc(OCC)c1OCC (configuration not stated)	3.69%
COc1ccc(NCc2cccn2-c2nnc(N3CCOCC3)s2)c(OC)c1	5.79%
O=C(NNc1ncnc2c1cnn2-c1ccccc1)c1ccccc1	10.1%
O=C(COc1ccc(Cl)cc1)Nc1ccc2[nH]ncc2c1	active: 34.1%
CC(C)Sc1oc(-c2ccco2)nc1S(=O)(=O)c1ccccc1	active: 32.7%
Cc1ccc(C(=O)Nc2nnc(SCc3cc(=O)n4ccc(C)cc4n3)s2)cc1	-0.0962%
O=C(Cn1nc2c(cc1=O)CCCC2)NCc1ccccc1Cl	-0.105%
O=C(CN1C(=O)COc2ccc(S(=O)(=O)N3CCCCCC3)cc21)N1CCN(c2ccccc2)CC1	-7.79%
Cc1cc(C)cc(NC(=O)Cn2nnc(C(=O)NCc3ccco3)c2N)c1	6.07%
CCC(=O)N1c2nc(C(C)C)nn2C2(CCCCC2)[C@@H]2CCCC[C@@H]21	20.4%
CCCN(C(=O)CCn1cnc2onc(-c3ccc(F)cc3)c2c1=O)c1ccccc1C	-8.68%
Cc1ccc(Cl)cc1N1CCN(C(=O)Cn2nc(C)n3c(cc4sccc43)c2=O)CC1	-3.81%
COc1cccc(CNc2ccc3c(c2)ncn3C)c1OC	5.26%
Cc1cc(SCC(=O)NCc2ccccc2)nc(=O)[nH]1	-15.2%
CCC(=O)N1CCc2cc(S(=O)(=O)NCCC(=O)Nc3cccc(C)c3C)ccc21	-24.8%
CCOc1ccccc1NC(=O)C1CCCN(S(=O)(=O)c2ccc3c(c2)CCCN3C(C)=O)C1 (configuration not stated)	-1.92%
COc1ccc(OC)c(CCNC(=O)C(C)n2nc(C)c3c(C)n(-c4ccc(C)cc4)nc3c2=O)c1 (configuration not stated)	10.1%
CCc1ccc(S(=O)(=O)c2nnn3c2nc(Nc2cccc(C)c2C)c2sccc23)cc1	7.52%
COc1cc(-c2nnc(SCC(=O)N3CCCc4ccccc43)o2)cc(OC)c1OC	-2.42%
COc1ccc(N(CC(=O)Nc2ccc(Cl)cc2C)S(=O)(=O)c2ccccc2)c(OC)c1	-12.7%
O=C(NCc1ccccc1Br)c1ccc(-n2cnc3cccnc32)cc1	-0.206%
Cc1ccc(C)c(NC(=O)CSc2ccc(S(=O)(=O)N3CCCC3)cn2)c1	active: 39.1%
CCCCN(C)c1ncnc2c1cnn2-c1cccc(Cl)c1	-2.19%
CSc1ccccc1NC(=O)CCS(=O)(=O)c1nc(-c2cccs2)cc(C(F)(F)F)n1	-10.1%
COc1ccc(C(=O)N=c2sc3cc(Cl)ccc3n2C)cc1	10.5%

Compound	inhibition
Cc1ccc(NC(=O)CSc2nnc(-c3cc4occc4n3C)n2-c2ccccc2C)cc1F	-0.921%
CCN(CC)CCOC(=O)c1ccc(NC(=O)CCn2c(=O)oc3ccccc32)cc1	-26.6%
Cc1ccccc1C(=O)Nc1nnc(S(=O)(=O)N2CCCc3ccccc32)s1	24.6%
COc1ccc(C(=O)N2CCC(C(=O)Nc3ccc(OC)cc3OC)CC2)cc1	2.9%
Cc1ccc(-n2c(=O)c3sccc3n(Cc3cc(=O)n4ccccc4n3)c2=O)cc1	-12.2%
O=C1C(c2ccc(C(F)(F)F)cc2)=C(Nc2ccc(Cl)cc2)c2ccccc21	-1.39%
Cc1nnsc1C(=O)Oc1ccccc1Cl	-9.03%
O=C(CN1CCC(O)(c2ccccc2)CC1)Nc1ccc2c(c1)OCCO2	active: 94.9%
Cc1ccc(CNC(=O)C(CC(C)C)N2Cc3ccccc3C2=O)cc1 (configuration not stated)	8.05%
Cc1nc(NC(=O)c2cc(-n3cnnc3)ccc2Cl)ccc1Br	active: 30.4%
O=C(NCCSc1c(-c2ccc(Br)cc2)[nH]c2ccccc12)c1ccc(S(=O)(=O)N2CCOCC2)cc1	2.95%
CC1Cc2ccccc2N1C(=O)CN(C)CC(=O)Nc1ccc(F)cc1 (configuration not stated)	active: 42.5%
Clc1cccc(-n2ncc3c(NCCCc4ccccc4)ncnc32)c1	21.9%
Cc1cc(C)cc(NC(=O)C(Cc2ccccc2)N2Cc3ccccc3C2=O)c1 (configuration not stated)	3.83%
CCN(CC)c1ccc(NC(=O)Cn2c(C)c3cnn(-c4ccccc4)c(=O)c3c2C)c(C)c1	-2.12%
Cc1cc(Cl)ccc1NC(=O)CCS(=O)(=O)c1cc2c(cc1C)NC(=O)CO2	8.11%
COC(=O)c1c(-c2cccs2)csc1NC(=O)c1cc(OC)cc(OC)c1	-11.5%
COC(=O)c1c(NS(=O)(=O)c2cccs2)sc2c1CCCC2	active: 41.4%
CCc1cccc(C)c1Nc1c(-c2ccc(N(C)C)cc2)nc2ncccn12	-1.03%
Cc1cc(C)c2oc(C(=O)Nc3c(C(=O)c4ccc(F)cc4)oc4ccccc34)cc(=O)c2c1	13.7%
Cc1ccc(C)c(CN2C(=O)c3ccccc3Sc3ccc(C(=O)NCc4ccco4)cc32)c1	2.48%
Cc1cccc(OCc2ccc(-c3nc(C#N)c(N4CCN(c5ccccc5)CC4)o3)o2)c1	-2.73%
